Measured values: the supplement of paper PMC11417369
The other results are listed elsewhere or left out.

Each sequence was assayed on PfAP2-HC AP2 domain (GST-tagged) (assay: gcPBM binding intensity (ln(normalized median fluorescence intensity)); higher = stronger DNA binding).
Method in brief: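 After 1 h on an Agilent 4 × 180k array of primer-extended double-stranded 36-bp intergenic genomic probes and negative controls, bound GST-tagged P. falciparum DNA-binding domains were detected with Alexa488 anti-GST antibody and scanned at 488 nm. The domains had been expressed in E. coli, and binding took place in 1× PBS with 1% milk, 0.2 mg/ml BSA, 0.5% salmon testes DNA and 0.03% Triton X-100. Binding intensity is the highest Masliner-normalised natural-log median intensity across replicate spots of either probe orientation.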

Compared with “AAAAAAAAAAAAAAAAGTACATATATATATATAATT [XGTACX_site4437]”, “CTTTCAAAATTATTTATAGTATCTCATATTTTAGTA [XGTACX_negctrl_site72]” is lower in “gcPBM binding intensity (ln)” value: 9.46 for the first, 9.35 for the second.

First: TTTATTAATAAAAAGGTGCAATCAGGAAAAATTATC [GTGCAC_site9626]
Second: ATCCTTTATAAATAAGTGCATATAAAAAATAATATT [GTGCAC_site9759]
The “gcPBM binding intensity (ln)” value of the first is higher: 9.56 for the first, 9.49 for the second.

First: ACACATATGTATATATGTACTTATATATATATATAT [XGTACX_site8632]
Second: TTTTAGCTATTTTAATATAATGAAGCAAAAAATAAA [TGCATGCA_negctrl_site576]
The “gcPBM binding intensity (ln)” value of the first is higher: 9.71 for the first, 9.3 for the second.

First: ATAATAAATTCTACGCGTACAAAACCATGAACATTA [XGTACX_site7505]
Second: ATGTATTACTTAAATATATGAAACATATTACTTTTA [CACACA_negctrl_site496]
The “gcPBM binding intensity (ln)” value of the first is higher: 9.79 for the first, 9.61 for the second.

Going from AATTATATATAAAAAGTGCAAAACGATAATTCATCA to “AATATATATATATTATGTACACATAGAAATATATTA [XGTACX_site3874]”, the “gcPBM binding intensity (ln)” value falls from 9.92 to 9.62.

First: CATACATACAAACACACACACATATAAATACATACA [CACACA_site4625]
Second: ACATTGTTGGTGTTAGTGCATTGGTAAATATTATAT
The “gcPBM binding intensity (ln)” value of the first is higher: 11.2 for the first, 9.85 for the second.

Compared with “AAAAAAAAAAAAAAAACACACATATCTGTATTTATA [CACACA_site5760]”, “AAAAAAAAAATTTTCGTGCACATAAGAAAATTTAAA [GTGCAC_site9788]” is lower in “gcPBM binding intensity (ln)” value: 9.75 for the first, 9.58 for the second.

Going from “ATAGTATATCAAAATTTGTAAATCATTCTCAATAAA [CACACA_negctrl_site430]” to “ACCTACATACATATGTGTACTTATTTGTATTCACTG [XGTACX_site7124]”, the “gcPBM binding intensity (ln)” value rises from 9.36 to 10.2.

First: TTTATAAACAAATGAACACACAAACATATTTATATA [CACACA_site7478]
Second: ATAATATATGAAAAAACGATTTTTTCATTTTAAATA [XGTACX_negctrl_site146]
The “gcPBM binding intensity (ln)” value of the first is higher: 9.91 for the first, 9.51 for the second.

Compared with “CACACGTAAAAGTATAATATAAAAAAGGTATACACT [CACACA_negctrl_site127]”, “TATTTAAAGATATATACACACATTTGATATTATTAT [CACACA_site6509]” is lower in “gcPBM binding intensity (ln)” value: 9.79 for the first, 9.74 for the second.

Compared with “TTATTTGAACAATATGCACACATTTTATTTATTTTA [CACACA_site3420]”, “TTAATGTTGTATGGTTGTACAATAAGCCCCTTTTAA [XGTACX_site2484]” is lower in “gcPBM binding intensity (ln)” value: 9.84 for the first, 9.54 for the second.

Compared with “TATATATATATGTGCACACATAATAAAAAAAAAAAT [CACACA_site3831]”, “TATAAAGCATATTAAAGTACTTATTTTCCTTTTTCT [XGTACX_site8892]” is lower in “gcPBM binding intensity (ln)” value: 10.2 for the first, 9.56 for the second.

First: TTTTATTTTATTCTTAAATAAGTATTATAAAATATG [XGTACX_negctrl_site201]
Second: TACCCTGATCGGCATGCATGTAAGTAACAAATATAT [TGCATGCA_site153]
The “gcPBM binding intensity (ln)” value of the first is lower: 9.2 for the first, 9.56 for the second.

Compared with “ATTTAGAAATATATTTGTACATATATATATATATAT [XGTACX_site7129]”, “ATTCAAACAAATTAATGTACATATATATAAGATATT [XGTACX_site1531]” is lower in “gcPBM binding intensity (ln)” value: 9.75 for the first, 9.62 for the second.

Compared with “ATAAAAAGAAAAAAGGGTACACTATACTATTTAAAA [XGTACX_site4467]”, “ATATATACATATAAATGTACATAATTATTATGCACA [XGTACX_site1261]” is lower in “gcPBM binding intensity (ln)” value: 9.59 for the first, 9.54 for the second.

Going from “CTACATATTAATATATGTACATATTAATATATCTAA [XGTACX_site7118]” to “TGTTGATAAAAAATAAAAAATAAAAAAATAAAATAT [TGCATGCA_negctrl_site559]”, the “gcPBM binding intensity (ln)” value rises from 9.33 to 9.71.

First: TATGATGATATAAAAACACACACATATAATATAATA [CACACA_site8321]
Second: TTAAAGCTTACATATACACACATACATAAATTCATA [CACACA_site8785]
The “gcPBM binding intensity (ln)” value of the first is higher: 10.1 for the first, 9.94 for the second.

Compared with “GTAAAATAAAATATATGTACATATGTATATGAGGTA [XGTACX_site3743]”, “GACATATTCCCCCCCACACACACACCCACATACATA [CACACA_site2302]” is higher in “gcPBM binding intensity (ln)” value: 10 for the first, 11.1 for the second.

Going from “TTTTGATCATCCAAAATATCTTCATCTGAACTACTA [CACACA_negctrl_site939]” to “TTTTTATATAACCTTCTTAATTCTTTTTTTTTTTTT [XGTACX_negctrl_site591]”, the “gcPBM binding intensity (ln)” value falls from 9.6 to 9.47.

First: AAAACAAAATTATGAACATGCAAGGTAAAATTGTAA [TGCATGCA_site775]
Second: AATATAATATAATGCACACATAAAAAAAAAATCAAA [CACACA_site122]
The “gcPBM binding intensity (ln)” value of the first is higher: 10.1 for the first, 9.89 for the second.

Going from “AAAATATATATATATATATATATATGTATACTCCTA [XGTACX_negctrl_site312]” to “TTATTTATAAATATTAATTTTTTTTTTTTTTTTTTT [XGTACX_negctrl_site105]”, the “gcPBM binding intensity (ln)” value falls from 9.72 to 9.27.

Compared with “TTTTATGTTTCAAAATGTACATTAAAATATACCATA [XGTACX_site1713]”, “CATATGCATACTATACGTACATATGTATATAATATA [XGTACX_site7738]” is higher in “gcPBM binding intensity (ln)” value: 9.4 for the first, 9.7 for the second.
